34 variants from the RNAGym collection of RNA variant scans (doi:10.1093/nar/gkz1192) can be followed below.

B1: CPEB3 Ribozyme (parent)
chain: UAACAGGGGGCCACAGCAGAAGCGUUCACGUCGCAGCCCCUGUCAGAUUCUGGUGAAUCUGCGAAUUCUGCUGUAUAUCUC

The source gives no read counts; variants with many changes may rest on few reads.

Variants of B1 are the subject of this data set. In words: self-cleavage, relative activity (ratio to wild type); higher = more cleavage; in vitro, sequencing. The procedure, abridged: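 For each CPEB3 ribozyme variant, relative activity is its cleaved/total read fraction divided by the unmutated ribozyme's. Barcoded error-prone PCR libraries were transcribed by T7 RNA polymerase (5 hours, 37°C) and held in DNase I for 15 min before an EDTA stop, with cleavage occurring throughout. Template-switching reverse transcription and Illumina sequencing were used to read the RNAs. A 5-read minimum applied, and results are the mean of three batches.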
UAACAGGGGGCCACAGCAGAAGCUUUCACGUCGCAGCUCCUGUCAGAUUCAGGUGAAUCUGCGAAUUCUGCUGUAUAUCUC [G24U C38U U51A]: the self-cleavage stood at 0.4.
With UAACAGGGGGCCACAGCAGAAGCCUUCACGCCGCAGCCCCUGUCAGAUUCUGGUGAAUCUGCGUAUUCUGCUGUAUAUCUC [G24C U31C A64U], the self-cleavage is 0.07.
UAACAGGGGGCCACAGCAGAAGCCUUCACGUCGCAGCCCCUGUCAGAUUCCGGUGAAUCUCAGGAUUCUGCUGUGUAUCUC [G24C U51C G61C C62A A64G A75G]: the self-cleavage was found to be 0.1.
Consider UAACAGGGGGCCACAGCAGAAGCCUUCUCGUCGCAGCCCCUGUCGGAUUCUGGUGAAGCUGCGAACUCUGCUGUAUAUCUC [G24C A28U A45G U58G U66C], for which the self-cleavage turned out to be 0.18.
In the case of UAACAGGGGGCCACAGCAGAAGCCCUCACGACGCAGCCCCUGUCAGAUUCCGGUGAAUCUGCGAAUUCUGCUGUAUAUCUC [G24C U25C U31A U51C], the self-cleavage stood at 0.11.
On to UAACAGGGGGCCACAGCAGAAGCUUUCACGUCGCAGCCCUUGUCAGAUUCUGGUGAAUCUGCGAGUUCAGCGGUAUAUCUC [G24U C40U A65G U69A U72G], for which the self-cleavage worked out at 0.1.
With UAACAGGGGGCCACAGCAGAAGCAUUCACGCCGCAGCCCCUGUCAGAUUCUGGUGAAUCAGCGAAUUCUGCUGUAUAUCUC [G24A U31C U60A], the self-cleavage was 0.12.
As to UAACAGGGGGCCACAGCAGAAGCUUUCACGUCGCAGCCCCUGUCUGACUCUGGUGAAUCUGCGAAUUCUGCUGUAUAUCUC [G24U A45U U48C], the self-cleavage turned out to be 0.14.
Take UAACAGGGGGCCACAGCAGAAGCCAUCACGUCGCAACCCCUGUCAGAUUCUGGUGAAUCUGCUGAUUCUGCUGUAUAUCUC [G24C U25A G36A G63U A64G]: the self-cleavage is 0.1.
Then UAACAGGGGGCCACAGCAGAAGCCUUCACGUCGCAGCCCCUGUCAGAUUCUGGUGAACCUGCGAAUUCUGCUGUAUACCUC [G24C U58C U78C], with 0.18; and UAACAGGGGGCCACAGCAGAAGCCUUCACGUCGCAGCCCCUGUCCGACUCUCGUGAAUCUGCGAAUUCUGCUGUAUAUCUC [G24C A45C U48C G52C], with 0.35.
The result for UAACAGGGGGCCACAGCAGAAGCUUUCACGUCGCAGCCCCUGUCAGAUUCUGACGAAUCGGCGGUUUCUGCUGUAUAUCUC [G24U G53A U54C U60G A64G A65U] reads 0.07; that for UAACAGGGGGCCACAGCAGAAGCAUUCACGUCGCAGCCCCCGUCAGAUUCGGGAGUGUCUGCGGAUUCUGCUGUAUAUCUC [G24A U41C U51G U54A A56U A57G A64G], 0.09; that for UAACAGGGGGCCACAGCAGAAGCCUACACGUCGCGGCCCCUGUCAGAUUCUGGUGGAUCUGCGAAUUCUGCCGUAUAUCUU [G24C U26A A35G A56G U72C C81U], 0.27.
For the variant UAACAGGGGGCCACAGCAGAAGCCUUCACGUCGCAGCCCCCGUCAGAUUCUGGUGGAUCCGCGAAUUCUGCUAUAUAUAUC [G24C U41C A56G U60C G73A C79A], the self-cleavage stood at 0.28.
The result for UAACAGGGGGCCACAGCAGAAGCAUUCACGUCGCAGCCCCUGUCAGACGCUGGUGAAUCUGCGGAUUCUGCUGUAUAUCUC [G24A U48C U49G A64G] reads 0.07; that for UAACAGGGGGCCACAGCAGAAGCCUUCACGUCGCAGCCCCAGUCAGAUACUGGUGAAUCUGCGAAUUCUGCUGUAUAUCUC [G24C U41A U49A], 0.08; that for UAACAGGGGGCCACAGCAGAAGCAUUCACGCCGCAGCCCCUGUCAGAUUCCGGUGAAUCUACGAAUUCAGCUGUAUACCUC [G24A U31C U51C G61A U69A U78C], 0.11.
For the variant UAACAGGGGGCCACAGCAGAAGCCUUCACGUCGGAGCCCCUGUCAGAUUCUGGUGAAUCAGCGAAUUCUGCUGUAUGCCUC [G24C C34G U60A A77G U78C], the self-cleavage stood at 0.22.
The result for UAACAGGGGGCCACAGCAGAAGCAUUCACGUCGCAGCCCCUGUCAGAUUCUGGAGAAUCUGCGGGUUCUGCUGUAUAUCUC [G24A U54A A64G A65G] reads 0.07; that for UAACAGGGGGCCACAGCAGAAGCAUUCACGUCGCAGCCCCUGUCAGAUUCCGGUGGAUCUGCGAAUUCUGCCGCAUAUCUC [G24A U51C A56G U72C U74C], 0.17; that for UAACAGGGGGCCACAGCAGAAGCUUUCACGUCGCAGCCCCUGUCAGAUUCUGGUGAAUCUGCGGAUUGUGCUGUAUAUCUC [G24U A64G C68G], 0.08.
Take UAACAGGGGGCCACAGCAGAAGCUUUCACGUCGCGGCCCCUGUCAGAUUCUGGCGAAUCUGCGAAUUCUGCCGUAUAUCUC [G24U A35G U54C U72C]: the self-cleavage came to 0.45.
With UAACAGGGGGCCACAGCAGAAGCAUUCACGUCGCAGCCCCUGUCAGAUCCAGGUGAAUCUGCGAAUUCUGCAGUAUAUCUC [G24A U49C U51A U72A], the self-cleavage is 0.11.
Then UAACAGGGGGCCACAGCAGAAGCAUUCACGUCGCAGCCCCAGUCAGACUCUGGCGAAUCUGCGAAUUCUAAUGUAUAUCUC [G24A U41A U48C U54C G70A C71A], with 0.04; and UAACAGGGGGCCACAGCAGAAGCAUUCACGUCGCAGCCCCCCUCAGAUUCUGGAGAAUCUGCGAAUUCUGCUGUAUAUCUC [G24A U41C G42C U54A], with 0.67; and UAACAGGGGGCCACAGCAGAAGCAUUCACGUCGCAGCCCCAGUCAGAUUCUGGUGAAUCUGCGAAUUCUGCUGCAUAUCUC [G24A U41A U74C], with 0.2.
UAACAGGGGGCCACAGCAGAAGCAUUCACGUCGCAGCCCCCGUCUGGUACUGGUGGAUCUGCGAAUUCUGCUGUAUCUCUC [G24A U41C A45U A47G U49A A56G A77C]: the self-cleavage was 0.04.
Consider UAACAGGGGGCCACAGCAGAAGCCUUCACGUCGCAGCCCCAGUCAGAUUCUGGCGAAUCUGCGAAUCCUGCUGUAUAUCUC [G24C U41A U54C U67C], for which the self-cleavage is 0.11.
For the variant UAACAGGGGGCCACAGCAGAAGCAUUCACGUCGCAGCCCCUGUCAGAUUCUGGUGAAUCCGCGAAUCCUGCUGUAUAUCUC [G24A U60C U67C], the self-cleavage turned out to be 0.19.
Then UAACAGGGGGCCACAGCAGAAGCAUUCACGUCGCAGCCCCUGUCAGAAUCUGGUGAAUCUGCGAAUUCUUCUGUAUAUCUC [G24A U48A G70U], with 0.05.
Consider UAACAGGGGGCCACAGCAGAAGCAUUCACGUCGCAGCCCCUGUCAGAUUCAGGUGAAUCUACGAAUUCUGCUGUAUAUCUC [G24A U51A G61A], for which the self-cleavage came to 0.13.
On to UAACAGGGGGCCACAGCAGAAGCCUCCACGUCGCGGCCCCUGUCAGAUCCCGGUGAAUCUGCGAAUUCUGCUGUAUAUCUC [G24C U26C A35G U49C U51C], for which the self-cleavage stood at 0.03.
On to UAACAGGGGGCCACAGCAGAAGCCUUCAUGUCGCAGCCCCUGUCAGAAUCUGGUGAAUCUGCGAAUUCUGCUGUAUACCUC [G24C C29U U48A U78C], for which the self-cleavage turned out to be 0.24.
